Test results as given in the RNAGym collection of RNA variant scans (doi:10.1093/nar/gkz1192).
The source gives no read counts; variants with many changes may rest on few reads.

B1: CPEB3 Ribozyme (parent)
chain: UAACAGGGGGCCACAGCAGAAGCGUUCACGUCGCAGCCCCUGUCAGAUUCUGGUGAAUCUGCGAAUUCUGCUGUAUAUCUC

Variants of: B1
Experiment: self-cleavage, relative activity (ratio to wild type); higher = more cleavage; in vitro, sequencing
Method in brief: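 CPEB3 self-cleaving ribozyme mutant libraries were made by rounds of error-prone PCR, barcoded, and transcribed in vitro with T7 RNA polymerase for 5 hours at 37°C. Cleavage occurred during transcription and a 15 min DNase I step before EDTA stop. RNAs were reverse transcribed with template switching and Illumina-sequenced, with DNA sequencing mapping barcodes to variants. Relative activity is the variant's cleaved/total read fraction divided by wild type's (minimum 5 reads), averaged across three batches.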

Row | Variant | self-cleavage
1 | A35G C40A U69C U72A | 0.06
2 | A35G C40A U80A | 0.38
3 | A35G C40G A56U U69C A75G | 0.09
4 | A35G C40U U41A A45U | 0.41
5 | A35G C40U U41C | 1.23
6 | A35G C40U U48C U58C U78C | 0.32
7 | A35G C40U U48C U74A U80C | 1.3
8 | A35G C44A G55C | 0.8
9 | A35G C44U U60C A65G | 0.24
10 | A35G C44U U69C | 0.37
11 | A35G C62A U69C | 0.64
12 | A35G C68U U78C | 1.27
13 | A35G C71G U74A | 1.4
14 | A35G C79U U80A | 1.29
15 | A35G G36A U54C U67C | 0.1
16 | A35G G36C U48C U67C | 0.11
17 | A35G G36C U54C U60C U66C U74C U78C | 0.05
18 | A35G G36U U41A U76C C79U | 0.18
19 | A35G G42C U69C | 0.15
20 | A35G G46A A56U U78C | 0.25
21 | A35G G46U U54A U69C | 0.22

Row | Variant | self-cleavage
22 | A35G G53A U69A | 1.24
23 | A35G G53A U80C | 1.28
24 | A35G G55A U67C U78C | 0.64
25 | A35G G55U A75G | 1.3
26 | A35G G63A A65U A75U | 1.35
27 | A35G G63A U66A U72C | 1.21
28 | A35G G63C C71G U74A | 1.25
29 | A35G G63U U67A U72C | 1.24
30 | A35G G63U U78C | 1.28
31 | A35G G70A C71U | 0.93
32 | A35G U41A A45G | 0.32
33 | A35G U41A A47G U58C A77G U80C C81U | 0.47
34 | A35G U41A A47U G53A | 0.34
35 | A35G U41A A56U | 0.19
36 | A35G U41A A57U G63A | 0.26
37 | A35G U41A G52U U60C C68A | 0.14
38 | A35G U41A U43A | 0.29
39 | A35G U41A U43C U69A | 0.05
40 | A35G U41A U48C C50U C59A | 0.07
41 | A35G U41A U60C U78C | 0.14
42 | A35G U41A U72G | 0.43

Row | Variant | self-cleavage
43 | A35G U41A U74C | 0.52
44 | A35G U41A U80C | 0.38
45 | A35G U41C A45G | 1.43
46 | A35G U41C A45G U72A | 0.96
47 | A35G U41C A45U U58G U69A U72C U76C | 0.31
48 | A35G U41C A56G U72A | 1.33
49 | A35G U41C A75U | 1.29
50 | A35G U41C C50G A65U U67C U80C | 0.48
51 | A35G U41C C59A | 1
52 | A35G U41C G46C C71U | 0.33
53 | A35G U41C G52A | 1.28
54 | A35G U41C U43A U49C U60A A75U | 0.24
55 | A35G U41C U43A U78A | 1.22
56 | A35G U41C U43C A57G U66A | 0.17
57 | A35G U41C U43C U49C U67C U78C | 0.09
58 | A35G U41C U43C U78C | 0.99
59 | A35G U41C U43G A45G | 0.37
60 | A35G U41C U54C | 1.36
61 | A35G U41C U54C C71A | 0.43
62 | A35G U41C U58C | 1.13
63 | A35G U41C U60A | 1.08

Row | Variant | self-cleavage
64 | A35G U41C U67C | 0.37
65 | A35G U41C U69A | 1.31
66 | A35G U41C U69A U72C | 0.88
67 | A35G U41C U72C U74C U80A | 1.31
68 | A35G U41C U78C | 1.25
69 | A35G U41G A57G U76C A77G | 0.2
70 | A35G U41G U60A G73A | 0.13
71 | A35G U43A A45U A56G | 1.15
72 | A35G U43A A56G U74C | 1.27
73 | A35G U43A A57G A65G | 1.19
74 | A35G U43A A65G | 0.83
75 | A35G U43A A65G U72C | 1.05
76 | A35G U43A U49A A64G U69A | 0.5
77 | A35G U43A U72A A77C | 1.21
78 | A35G U43C A45G U69A | 0.25
79 | A35G U43C A47U | 0.8
80 | A35G U43C A64G | 1.19
81 | A35G U43C A65U | 0.35
82 | A35G U43C A77G | 1.3
83 | A35G U43C U49A G63A A65U U69A U72A | 0.06
84 | A35G U43C U54C | 0.87
